The list shows a part of the results. Binding of human transcription factors and regulators to the viral nucleoprotein by AlphaScreen, crude cell-free proteins, amounts not normalised, one pass. Fold of the Venus control; higher = more signal. No active / inactive call. Single-pass screen; sequences are the whole Swiss-Prot entries looked up by name.
B1: ZNF165, P49910 (protein)
chain: MATEPKKAAAQNSPEDEGLLIVKIEEEEFIHGQDTCLQRSELLKQELCRQLFRQFCYQDSPGPREALSRLRELCCQWLKPEIHTKEQILELLVLEQFLTILPGDLQAWVHEHYPESGEEAVTILEDLERGTDEAVLQVQAHEHGQEIFQKKVSPPGPALNVKLQPVETKAHFDSSEPQLLWDCDNESENSRSMPKLEIFEKIESQRIISGRISGYISEASGESQDICKSAGRVKRQWEKESGESQRLSSAQDEGFGKILTHKNTVRGEIISHDGCERRLNLNSNEFTHQKSCKHGTCDQSFKWNSDFINHQIIYAGEKNHQYGKSFKSPKLAKHAAVFSGDKTHQCNECGKAFRHSSKLARHQRIHTGERCYECNECGKSFAESSDLTRHRRIHTGERPFGCKECGRAFNLNSHLIRHQRIHTREKPYECSECGKTFRVSSHLIRHFRIHTGEKPYECSECGRAFSQSSNLSQHQRIHMRENLLM
B2: TAF13, Q15543 (protein)
chain: MADEEEDPTFEEENEEIGGGAEGGQGKRKRLFSKELRCMMYGFGDDQNPYTESVDILEDLVIEFITEMTHKAMSIGRQGRVQVEDIVFLIRKDPRKFARVKDLLTMNEELKRARKAFDEANYGS
B3: SALL1, Q9NSC2 (protein)
chain: MSRRKQAKPQHFQSDPEVASLPRRDGDTEKGQPSRPTKSKDAHVCGRCCAEFFELSDLLLHKKNCTKNQLVLIVNENPASPPETFSPSPPPDNPDEQMNDTVNKTDQVDCSDLSEHNGLDREESMEVEAPVANKSGSGTSSGSHSSTAPSSSSSSSSSSGGGGSSSTGTSAITTSLPQLGDLTTLGNFSVINSNVIIENLQSTKVAVAQFSQEARCGGASGGKLAVPALMEQLLALQQQQIHQLQLIEQIRHQILLLASQNADLPTSSSPSQGTLRTSANPLSTLSSHLSQQLAAAAGLAQSLASQSASISGVKQLPPIQLPQSSSGNTIIPSNSGSSPNMNILAAAVTTPSSEKVASSAGASHVSNPAVSSSSSPAFAISSLLSPASNPLLPQQASANSVFPSPLPNIGTTAEDLNSLSALAQQRKSKPPNVTAFEAKSTSDEAFFKHKCRFCAKVFGSDSALQIHLRSHTGERPFKCNICGNRFSTKGNLKVHFQRHKEKYPHIQMNPYPVPEHLDNIPTSTGIPYGMSIPPEKPVTSWLDTKPVLPTLTTSVGLPLPPTLPSLIPFIKTEEPAPIPISHSATSPPGSVKSDSGGPESATRNLGGLPEEAEGSTLPPSGGKSEESGMVTNSVPTASSSVLSSPAADCGPAGSATTFTNPLLPLMSEQFKAKFPFGGLLDSAQASETSKLQQLVENIDKKATDPNECIICHRVLSCQSALKMHYRTHTGERPFKCKICGRAFTTKGNLKTHYSVHRAMPPLRVQHSCPICQKKFTNAVVLQQHIRMHMGGQIPNTPVPDSYSESMESDTGSFDEKNFDDLDNFSDENMEDCPEGSIPDTPKSADASQDSLSSSPLPLEMSSIAALENQMKMINAGLAEQLQASLKSVENGSIEGDVLTNDSSSVGGDMESQSAGSPAISESTSSMQALSPSNSTQEFHKSPSIEEKPQRAVPSEFANGLSPTPVNGGALDLTSSHAEKIIKEDSLGILFPFRDRGKFKNTACDICGKTFACQSALDIHYRSHTKERPFICTVCNRGFSTKGNLKQHMLTHQMRDLPSQLFEPSSNLGPNQNSAVIPANSLSSLIKTEVNGFVHVSPQDSKDTPTSHVPSGPLSSSATSPVLLPALPRRTPKQHYCNTCGKTFSSSSALQIHERTHTGEKPFACTICGRAFTTKGNLKVHMGTHMWNSTPARRGRRLSVDGPMTFLGGNPVKFPEMFQKDLAARSGSGDPSSFWNQYAAALSNGLAMKANEISVIQNGGIPPIPGSLGSGNSSPVSGLTGNLERLQNSEPNAPLAGLEKMASSENGTNFRFTRFVEDSKEIVTS
B4: XCL1, P47992 (protein)
chain: MRLLILALLGICSLTAYIVEGVGSEVSDKRTCVSLTTQRLPVSRIKTYTITEGSLRAVIFITKRGLKVCADPQATWVRDVVRSMDRKSNTRNNMIQTKPTGTQQSTNTAVTLTG
B5: TCF21, O43680 (protein)
chain: MSTGSLSDVEDLQEVEMLECDGLKMDSNKEFVTSNESTEESSNCENGSPQKGRGGLGKRRKAPTKKSPLSGVSQEGKQVQRNAANARERARMRVLSKAFSRLKTTLPWVPPDTKLSKLDTLRLASSYIAHLRQILANDKYENGYIHPVNLTWPFMVAGKPESDLKEVVTASRLCGTTAS
B6: RAI1, Q7Z5J4 (protein)
chain: MQSFRERCGFHGKQQNYQQTSQETSRLENYRQPSQAGLSCDRQRLLAKDYYNPQPYPSYEGGAGTPSGTAAAVAADKYHRGSKALPTQQGLQGRPAFPGYGVQDSSPYPGRYAGEESLQAWGAPQPPPPQPQPLPAGVAKYDENLMKKTAVPPSRQYAEQGAQVPFRTHSLHVQQPPPPQQPLAYPKLQRQKLQNDIASPLPFPQGTHFPQHSQSFPTSSTYSSSVQGGGQGAHSYKSCTAPTAQPHDRPLTASSSLAPGQRVQNLHAYQSGRLSYDQQQQQQQQQQQQQQALQSRHHAQETLHYQNLAKYQHYGQQGQGYCQPDAAVRTPEQYYQTFSPSSSHSPARSVGRSPSYSSTPSPLMPNLENFPYSQQPLSTGAFPAGITDHSHFMPLLNPSPTDATSSVDTQAGNCKPLQKDKLPENLLSDLSLQSLTALTSQVENISNTVQQLLLSKAAVPQKKGVKNLVSRTPEQHKSQHCSPEGSGYSAEPAGTPLSEPPSSTPQSTHAEPQEADYLSGSEDPLERSFLYCNQARGSPARVNSNSKAKPESVSTCSVTSPDDMSTKSDDSFQSLHGSLPLDSFSKFVAGERDCPRLLLSALAQEDLASEILGLQEAIGEKADKAWAEAPSLVKDSSKPPFSLENHSACLDSVAKSAWPRPGEPEALPDSLQLDKGGNAKDFSPGLFEDPSVAFATPDPKKTTGPLSFGTKPTLGVPAPDPTTAAFDCFPDTTAASSADSANPFAWPEENLGDACPRWGLHPGELTKGLEQGGKASDGISKGDTHEASACLGFQEEDPPGEKVASLPGDFKQEEVGGVKEEAGGLLQCPEVAKADRWLEDSRHCCSTADFGDLPLLPPTSRKEDLEAEEEYSSLCELLGSPEQRPGMQDPLSPKAPLICTKEEVEEVLDSKAGWGSPCHLSGESVILLGPTVGTESKVQSWFESSLSHMKPGEEGPDGERAPGDSTTSDASLAQKPNKPAVPEAPIAKKEPVPRGKSLRSRRVHRGLPEAEDSPCRAPVLPKDLLLPESCTGPPQGQMEGAGAPGRGASEGLPRMCTRSLTALSEPRTPGPPGLTTTPAPPDKLGGKQRAAFKSGKRVGKPSPKAASSPSNPAALPVASDSSPMGSKTKETDSPSTPGKDQRSMILRSRTKTQEIFHSKRRRPSEGRLPNCRATKKLLDNSHLPATFKVSSSPQKEGRVSQRARVPKPGAGSKLSDRPLHALKRKSAFMAPVPTKKRNLVLRSRSSSSSNASGNGGDGKEERPEGSPTLFKRMSSPKKAKPTKGNGEPATKLPPPETPDACLKLASRAAFQGAMKTKVLPPRKGRGLKLEAIVQKITSPSLKKFACKAPGASPGNPLSPSLSDKDRGLKGAGGSPVGVEEGLVNVGTGQKLPTSGADPLCRNPTNRSLKGKLMNSKKLSSTDCFKTEAFTSPEALQPGGTALAPKKRSRKGRAGAHGLSKGPLEKRPYLGPALLLTPRDRASGTQGASEDNSGGGGKKPKMEELGLASQPPEGRPCQPQTRAQKQPGHTNYSSYSKRKRLTRGRAKNTTSSPCKGRAKRRRQQQVLPLDPAEPEIRLKYISSCKRLRSDSRTPAFSPFVRVEKRDAFTTICTVVNSPGDAPKPHRKPSSSASSSSSSSSFSLDAAGASLATLPGGSILQPRPSLPLSSTMHLGPVVSKALSTSCLVCCLCQNPANFKDLGDLCGPYYPEHCLPKKKPKLKEKVRPEGTCEEASLPLERTLKGPECAAAATAGKPPRPDGPADPAKQGPLRTSARGLSRRLQSCYCCDGREDGGEEAAPADKGRKHECSKEAPAEPGGEAQEHWVHEACAVWTGGVYLVAGKLFGLQEAMKVAVDMMCSSCQEAGATIGCCHKGCLHTYHYPCASDAGCIFIEENFSLKCPKHKRLP

molecular target: nucleoprotein N of Crimean-Congo hemorrhagic fever virus; experiment: AlphaScreen luminescence signal relative to Venus negative control (fold); higher = stronger binding to CCHFV N
Description: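 AlphaScreen binding of cell-free made, FLAG-GST-tagged human transcription factors and regulators (crude translation products) to biotinylated N protein; signal as fold of the FLAG-GST-Venus control. One pass.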

Binder | AlphaScreen luminescence signal
B1 | 1.72
B2 | 1.58
B3 | 2.6
B4 | 2.05
B5 | 7.86
B6 | 1.49

From the supplement of paper PMC12423691
